Source: PubChem BioAssay AID1508642 (National Center for Advancing Translational Sciences (NCATS), 2021)
The whole screen tested about 43,000 compounds, of which about 200 (0.47%) were called active. Inconclusive results, whose numbers are uncertain, are shown with a selection of clear calls. Calls follow the shape of the dose curve; as a rule, active = well fitted cell-killing curve with a large enough effect; inconclusive = small, poorly fitted or top-dose-only effect, or effect the other way; inactive = flat fitted curve, though single readings scatter. A potency beside an inconclusive call is a rough fit, not a confirmed value.

assay: Cell viability qHTS assay in S16 Pmp22-F2sN cells; conditions: S16 Pmp22-F2sN Schwann cells (luciferase reporters placed in the Pmp22 gene) viability, CellTiter-Glo, 24 h; activity change, negative = cytotoxicity: at 57.5 µM (top of the series); also: nearly all actives have a fitted effect of over 65% in size
Summary of the method: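 Seed 500-1,000 S16 Pmp22-F2sN cells per well in phenol-red-free DMEM with 10% heat-inactivated FBS; pin-add 23 nL compound; incubate 24 h at 37C; add CellTiter-Glo, wait 15 min protected from light; read luminescence.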
% is scaled to controls: 0 for no effect and ±100 for the full control effect; potency is read from the fitted curve at half-maximal effect; tags tell the direction and shape of the fitted curve.

Row | Compound | Potency | activity change, negative = cytotoxicity
1 | COc1ccc(-c2nc(CCNC(=O)c3cccs3)cs2)cc1OC | inconclusive: 35.5 µM [cytotoxic, partial curve, poor fit] | –
2 | Cc1ccc(NCc2cccn2-c2nnc(N3CCC(C(=O)NCCc4ccccc4)CC3)s2)cc1 | inconclusive: 28.2 µM [cytotoxic, single point] | –
3 | Cc1ccc(C(=O)c2oc3ccccc3c2NC(=O)COc2ccccc2Cl)cc1 | – | inactive: -1.53%
4 | CCCCCC(=O)Nc1ccc(NC(=O)c2cc3ccccc3o2)c(OC)c1 | inconclusive: 44.7 µM [rising, single point] | –
5 | Cc1oc(-c2cccc(Cl)c2)nc1CN1CCCC(C(=O)N2CCN(c3ccc(F)cc3)CC2)C1 (stereo unspecified) | inconclusive: 31.6 µM [cytotoxic, partial curve, poor fit] | –
6 | CCOc1ccc(-n2c(CC)nc3c(cnn3-c3ccc(Cl)cc3)c2=O)cc1 | inconclusive: 1 µM [rising, partial curve, poor fit] | –
7 | O=C(NCc1ccc2c(c1)CCN2C(=O)c1ccc(F)cc1)c1ccco1 | inconclusive: 7.94 µM [cytotoxic, partial curve, poor fit] | –
8 | Cc1cc(Nc2ccc(Cl)cc2C)nc(-n2nc(C)cc2C)n1 | active: 5.62 µM | –
9 | CCOc1ccc(C(=O)Nc2ccc(-n3nncc3-c3ccccc3)cc2)cc1OCC | inconclusive: 20 µM [cytotoxic, partial curve, poor fit] | –
10 | Cc1ccc(C)c(N2CCN(CCCNC(=O)c3ccc4nc(N5CCCCC5)sc4c3)CC2)c1 | inconclusive: 28.2 µM [cytotoxic, single point] | –
11 | Cc1ccc(-c2nnc(Nc3ccccc3)c3ccccc23)cc1S(=O)(=O)NCc1nc2ccccc2[nH]1 | inconclusive: 35.5 µM [cytotoxic, single point] | –
12 | Cc1cccc(N2CCN(C(=O)CCS(=O)(=O)c3ccc4c(c3)oc(=O)n4C)CC2)c1C | inconclusive: 28.2 µM [cytotoxic, single point] | –
13 | O=C(Nc1noc2ccccc12)c1ccc(F)cc1 | – | inactive: -1.37%
14 | COc1ccccc1C(=O)Nc1cccc(C(=O)OCc2cc(=O)n3nc(C)sc3n2)c1 | – | inactive: 9.05%
15 | CC(Oc1ccccc1)C(=O)Nc1ccccc1C(=O)OCc1cc(=O)n2nc(C3CC3)sc2n1 (stereo unspecified) | – | inactive: 7.7%
16 | COCCn1c(SCc2ccccc2F)nc2c([nH]c3ccccc32)c1=O | – | inactive: 0.791%
17 | CCCSc1ncc(Cl)c(C(=O)Nc2ccc(S(=O)(=O)N3CCCCC3C)cc2)n1 (stereo unspecified) | inconclusive: 25.1 µM [cytotoxic, partial curve, poor fit] | –
18 | Cc1cccc(CNC(=O)c2ccc(Cn3c(SCc4cccc(F)c4)nc4cccnc43)cc2)c1 | inconclusive: 15.8 µM [cytotoxic, partial curve] | –
19 | Cc1ccc(-n2nc(C(=O)N3CCN(c4cc(C)ccc4C)CC3)c3c4ccccc4n(C)c3c2=O)cc1 | inconclusive: 25.1 µM [rising, partial curve, poor fit] | –
20 | COc1ccc(-c2nn(C)c3sc(C(=O)Nc4cc(OC)c(OC)c(OC)c4)cc23)cc1OC | inconclusive: 28.2 µM [cytotoxic, single point] | –
21 | COc1ccccc1OCCCn1c(C2CC(=O)N(c3ccc(F)cc3)C2)nc2ccccc21 (stereo unspecified) | inconclusive: 17.8 µM [cytotoxic, partial curve] | –

Row | Compound | Potency | activity change, negative = cytotoxicity
22 | CCCOc1ccc(C(=O)Nc2cc(-c3nc4ccccc4[nH]3)ccc2C)cc1 | inconclusive: 39.8 µM [cytotoxic, single point] | –
23 | COC(=O)c1c(SCC(=O)Nc2cccc(C(F)(F)F)c2)[nH]c2ccccc2c1=O | inconclusive: 28.2 µM [cytotoxic, single point] | –
24 | COc1cc(NC(=O)c2cc(-c3ccccc3O)no2)cc(OC)c1OC | inconclusive: 28.2 µM [cytotoxic, single point] | –
25 | COc1ccc(C2CC(=O)c3cc(-c4nc(-c5ccc(Cl)cc5)cs4)c(=O)[nH]c3C2)cc1 (stereo unspecified) | – | inactive: 5.17%
26 | CCOC(=O)c1ccc(N2C(=O)c3n[nH]c(-c4cccs4)c3C2c2ccc(O)c(OC)c2)cc1 (stereo unspecified) | inconclusive: 31.6 µM [cytotoxic, partial curve, poor fit] | –
27 | COc1ccc(N2CCN(C(=O)CSCc3nc(-c4ccccc4Cl)oc3C)CC2)cc1 | inconclusive: 39.8 µM [cytotoxic, single point] | –
28 | Cc1ccc(-n2c(SCc3ccccc3F)nc3[nH]ncc3c2=O)cc1C | inconclusive: 39.8 µM [cytotoxic, single point] | –
29 | Cc1oc(-c2ccccc2F)nc1CS(=O)(=O)CC(=O)N1CCN(c2cccc(C(F)(F)F)c2)CC1 | – | inactive: 12.3%
30 | Cc1ccc(NC(=O)c2cccc(NC(=O)N3CCSc4ncccc43)c2)cc1Cl | – | inactive: -0.597%
31 | CC(=O)c1ccc(NC(=O)CSc2cn(CC(=O)N3CCCCC3)c3ccccc23)cc1 | – | inactive: -12.2%
32 | COc1ccc(Br)c2c1-c1nc(NC(=O)c3cccc(C)c3)sc1C2 | – | inactive: -3.47%
33 | CCOc1ccccc1NC(=O)CSC1=Nc2ccccc2C2=NC(CC(=O)NC3CCCCC3)C(=O)N12 (stereo unspecified) | – | inconclusive: -31.7% [cytotoxic]
34 | CCC(CC)C(=O)Nc1c(C(=O)N2CCN(c3ccccc3F)CC2)oc2ccccc12 | – | inactive: -9.22%
35 | CCOc1ccc(CN2C(=O)c3ccccc3Sc3ccc(C(=O)N4CCN(C)CC4)cc32)cc1 | inconclusive: 22.4 µM [rising, partial curve, poor fit] | –
36 | CCCn1c2ccccc2c2cnn(CC(=O)N(CCCOC(C)C)Cc3ccco3)c(=O)c21 | inconclusive: 39.8 µM [cytotoxic, single point] | –
37 | COc1ccc(N2CCN(C(CNS(=O)(=O)c3c(C)cc(C)cc3C)c3ccco3)CC2)cc1 (stereo unspecified) | inconclusive: 39.8 µM [cytotoxic, single point] | –
38 | CCOCCCNC(=O)c1c(NC(=O)c2cc(=O)c3cc(C)c(C)cc3o2)sc2c1CCC2 | inconclusive: 22.4 µM [rising, single point] | –
39 | CCn1c(=O)cc(OCC(=O)NCc2ccc(F)cc2Cl)c2ccccc21 | inconclusive: 31.6 µM [cytotoxic, partial curve, poor fit] | –
40 | COc1cccc2cc(-c3nc(Cl)c4c5c(sc4n3)CC(C)CC5)c(=O)oc12 (stereo unspecified) | – | inactive: 6.33%
41 | COc1ccc(NC(=O)c2c(C)oc3ccc(O)c(CN4CCCC(C)C4)c23)cc1Cl (stereo unspecified) | inconclusive: 39.8 µM [cytotoxic, single point] | –
42 | CCS(=O)(=O)c1ncc(Cl)c(C(=O)N(Cc2ccccc2)Cc2ccco2)n1 | active: 3.55 µM | –

Row | Compound | Potency | activity change, negative = cytotoxicity
43 | Cc1ccc(-c2csc(=Nc3ccccc3)n2CCCO)cc1 | inconclusive: 39.8 µM [cytotoxic, single point] | –
44 | Cc1ccc(-n2c(SCc3nc(-c4ccccc4C)no3)nnc2-c2ccncc2)cc1C | – | inactive: -19.6%
45 | COC(=O)c1c(NC(=O)c2ccc(S(=O)(=O)N3CCCCC3)cc2)sc2c1CCN(C)C2 | inconclusive: 39.8 µM [cytotoxic, single point] | –
46 | COc1cccc(C(=O)Nc2ccc3c(c2)CCCN3C(=O)c2cccs2)c1OC | inconclusive: 3.55 µM [cytotoxic, partial curve, poor fit] | –
47 | CCOc1ccc(Nc2c(S(=O)(=O)c3ccc(C)cc3)cnc3ccccc23)cc1 | inconclusive: 17.8 µM [cytotoxic, partial curve] | –
48 | Cc1cc(-c2nc3ncccc3o2)ccc1NC(=O)COc1ccc(C(C)(C)C)cc1 | inconclusive: 39.8 µM [rising, partial curve, poor fit] | –
49 | COc1cc(NC(=O)CCCSc2nc(-c3ccco3)cc(C(F)(F)F)n2)cc(OC)c1OC | inconclusive: 25.1 µM [cytotoxic, single point] | –
50 | CC(C)(C)OC(=O)N1CCC(c2c(C(=O)NCCN3CCOCC3)cnn2-c2ccccc2)CC1 | inconclusive: 39.8 µM [cytotoxic, single point] | –
51 | O=S(=O)(c1ccccc1)c1nc(-c2ccc(F)cc2)oc1N1CCCCCC1 | inconclusive: 39.8 µM [cytotoxic, single point] | –
52 | CCCCN1C(=O)C(O)(c2c(C)[nH]c3ccccc23)c2ccccc21 (stereo unspecified) | inconclusive: 15.8 µM [cytotoxic, partial curve] | –
53 | COc1cccc2sc(N3CCN(C(=O)CCS(=O)(=O)c4ccc(F)cc4)CC3)nc12 | inconclusive: 35.5 µM [cytotoxic, single point] | –
54 | Cc1ccc(CNC(=O)C(=O)NCC(c2cccnc2)N2CCN(c3ccccc3F)CC2)cc1 (stereo unspecified) | – | inactive: -23.5%
55 | COc1ccccc1CC(=O)Nc1ccc2nc(N3CCC(C)CC3)cc(C)c2c1 | inconclusive: 6.31 µM [rising, partial curve, poor fit] | –
56 | CCOc1ccccc1CNC(=O)c1cc(-c2ccc(C)c(C)c2)nc2ccccc12 | – | inconclusive: -34.1% [cytotoxic]
57 | CCn1c(CN2CCCCC2)nc2cc(NC(=O)c3ccc([N+](=O)[O-])cc3)ccc21 | inconclusive: 5.01 µM [cytotoxic, full curve, poor fit] | –
58 | CCc1ccc(CNC(=O)CCn2c(=O)c3cccn3c3ccc(F)cc32)cc1 | inconclusive: 0.0355 µM [cytotoxic, full curve, poor fit] | –
59 | Nc1c(C(=O)NCc2ccccc2)nnn1Cc1cccc(Br)c1 | inconclusive: 3.98 µM [cytotoxic, full curve, poor fit] | –
60 | O=S(=O)(NCc1ccc(Cl)cc1)c1ccc(N2CCCCS2(=O)=O)cc1 | inconclusive: 22.4 µM [cytotoxic, single point] | –
61 | O=C(Nc1ccc2oc(-c3cccc(Cl)c3Cl)nc2c1)c1cccc(Br)c1 | inconclusive: 39.8 µM [cytotoxic, single point] | –
